PMC12136788
The other results are listed elsewhere or left out.

T1: UNK ZnF1-3 (human, UniProt Q9C0B0 31-174)
T1 sequence: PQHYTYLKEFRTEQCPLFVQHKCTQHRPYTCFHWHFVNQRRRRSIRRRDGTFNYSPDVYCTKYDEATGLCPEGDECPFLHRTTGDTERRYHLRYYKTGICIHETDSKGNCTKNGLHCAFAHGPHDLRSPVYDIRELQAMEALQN

B1: chr11:4127340:4127341:+_ENSG00000167325_ENST00000300738|hu_mus|hu_hu_hu_mus_False|78_98 (ssRNA)
RNA: GGGAGUUCUACAGUCCGACGAUCGGCAUAGUCAGGGUGCUUAGUAGUCAAGGUCGCAGCUGUUUCAGCAGCCAGGGUGUCCAGUUCCACUGUGGUGACCCCACUAUAUAGGCCUUGGAUUACUUUCAUGGUGAUCUGAGCAGGCAACAGAGGAUUGAGCAUCA
B2: chr5:153406784:153406785:-_ENSG00000055147_ENST00000520667|hu_hu|FALSE|FALSE (ssRNA)
RNA: GGGAGUUCUACAGUCCGACGAUCUUUCACCUUUAUUUCACUUUCUUGGGAAAGCAUCUCCAGAGCUUCUAGAUGUGAAAGGCCUUGAAAUUCAUCAAAGAGUAGCCCAUAAUGAGUUUUCUUGUCUGUUUCCACGGUAACCUCCAACAGAGGAUUGAGCAUCA
B3: chrX:147030916:147030917:+_ENSG00000102081_ENST00000218200|hu_hu|motif|central (ssRNA)
RNA: GGGAGUUCUACAGUCCGACGAUCUAUAAUAUUCCUACCUGCCAAGAUAUAAAAAAGGCACAGAUCAUACAACUUUUUUUGCGGAUGAAAAUGACAAAUGUCACAUCACACACAUUUCAGGGUCCACUAAAAUACUGGAAAAGUCAACAGAGGAUUGAGCAUCA
B4: chr1:16667403:16667404:+_ENSMUSG00000025940_ENSMUST00000065373|mus_hu|motif|central (ssRNA)
RNA: GGGAGUUCUACAGUCCGACGAUCUGUCAUAACCCAUUAGAUGGAUAUAGUCUUCACGGUUUGGAAAGAGCACUGGAUUAACGGACAGUGAUUUUGUUUUAGCAUAAAAUGUGGUAAAUACAUGUUUAGCAUCUGGAAUCUUCACAACAGAGGAUUGAGCAUCA
B5: chr7:149068622:149068623:-_ENSMUSG00000025139_ENSMUST00000001950|mus_hu|FALSE|FALSE (ssRNA)
RNA: GGGAGUUCUACAGUCCGACGAUCGUGAGGCCUCUGAGUGUGGCUUGUGGUCUGUCCUGGGUUAGAGUUGUUAAUAUCACGGAACAUACCAUCUAGAACGUUCCAGUCCCGCCUGACACCUUCAUUCCCAAUGGAGAAGAAAUCCAACAGAGGAUUGAGCAUCA
B6: chr2:156904787:156904788:-_ENSMUSG00000055485_ENSMUST00000069098|mus_mus|FALSE|FALSE (ssRNA)
RNA: GGGAGUUCUACAGUCCGACGAUCCCCGCCGCUCAGGCCGCGACUGCGCUCCGGUCUCCUGCGUCCGGGGGCUGCGCUCGGGCCCUGCCCCGCGCCGCGCGGCCUCUCCGCCACUCGGUGCUCUCAGCGCGCGGCCCGAUCUCCCAACAGAGGAUUGAGCAUCA
B7: 134901083_134901203_1774_ncRNA_ENSMUSG00000028809_ENSMUST00000134854|mouse|control|control (ssRNA)
RNA: GGGAGUUCUACAGUCCGACGAUCUACUGCACAUGACAACCUGUUACUAACAAUGCCACAGAUGCUCAACUGUCCACAAAACUAAGAGUCAAGAUUUCUACAAGUAAUUUGGGUUUUUAAACACUAGAUUCUGUUGGUCAAGCACAACAGAGGAUUGAGCAUCA
B8: chr9:26842284:26842285:-_ENSG00000120159_ENST00000333916|hu_hu|FALSE|FALSE (ssRNA)
RNA: GGGAGUUCUACAGUCCGACGAUCAAUUAAAUGAUGUGGCUUUGUUCAAACAUACCUAAAAUUCAAAAUCAAGUUAAAUACCUAGGCUGGCUUUUUUAUAUCACCAGCUUUCAUUAGGGCUUUAAUCGCUCUUGCCCUCAUCUCCAACAGAGGAUUGAGCAUCA
B9: chr6:30403744:30403745:+_ENSMUSG00000029775_ENSMUST00000068259|mus_hu|FALSE|FALSE (ssRNA)
RNA: GGGAGUUCUACAGUCCGACGAUCUAGGAAAGUUGAUUCACUGAUUAUCUAUGGAUUUCAAUGAUCUGUGCUUUACUCUUGCUACUGUGGAUAACCAAAGGUCACUGUUAACGUAUCUUUUGCUUAAAAAUGUUAAUAUGCUUACAACAGAGGAUUGAGCAUCA
B10: 122453508_122455146_3497_3pUTR_ENSMUSG00000034602_ENSMUST00000073792|mouse|control|control (ssRNA)
RNA: GGGAGUUCUACAGUCCGACGAUCGACACUCCUUUCUCCUCGGCCUGCUUCUGCUGAGCUGCCUCUUCUUUAUUUAAUUCUUUUUCAAUCGUUUCCCCUCUUUGGAAAAAAUAAUCUGAUAUAUUCCACAAUAAGCCUAUUGACCAACAGAGGAUUGAGCAUCA
B11: chr12:105536279:105536280:+_ENSG00000136051_ENST00000332180|hu_hu|FALSE|FALSE (ssRNA)
RNA: GGGAGUUCUACAGUCCGACGAUCAGCACUGAACAUGUAAUGUAAUCUGGCUGCAUCAACAGCAUUUUCAUAUACAUCAUCUAAAUAAAUUGGGAAGACAGCUCGAUGCCAGUAUAAAAAACAACAGUCACAUUGUGUUUGGACCAACAGAGGAUUGAGCAUCA
B12: chr11:119967308:119967309:-_ENSMUSG00000061306_ENSMUST00000103018|mus_hu|FALSE|FALSE (ssRNA)
RNA: GGGAGUUCUACAGUCCGACGAUCAGGCAGGGGAGGCAGAUUCUCCACCGUCUCCCUGGCCUUGCCUUCAGGGGCCUCCUGGCCUCUGGGCACCGCUGCCCCGGGCUCUUGAUGCACCUCCACCUGCCUGGGUUUAUCCUCCUCCAACAGAGGAUUGAGCAUCA
B13: chr16:89885150:89885151:-_ENSMUSG00000002489_ENSMUST00000163370|mus_hu|FALSE|FALSE (ssRNA)
RNA: GGGAGUUCUACAGUCCGACGAUCGCUCUGCUCAUCGCUGUGCGCCGAGCCGGCCUCCUCCAGGCUCUCGCUGUUGGUGGUGCUCAUCUCCAGCUCCCGCCGGAAGUUCUCGUACACCCCCUGACGAGCCGCAUCCCCGGUGGACAACAGAGGAUUGAGCAUCA
B14: chr16:3748964:3748965:+_ENSMUSG00000022529_ENSMUST00000023176|mus_mus|FALSE|FALSE (ssRNA)
RNA: GGGAGUUCUACAGUCCGACGAUCUUCACCACACUCUACAUCCAUACACAGCUUUUCUGCUGCAUGUAUUCUCUGGUGCCUAAUUAGGUUUGAGUUAUUAGAAAAGUUCUUGCCACACAAGGCACACAAAUGGAGUUUCUUGGGCAACAGAGGAUUGAGCAUCA
B15: chr14:89307221:89307222:+_ENSG00000165533_ENST00000346301|hu_mus|hu_hu_hu_mus_False|78_108 (ssRNA)
RNA: GGGAGUUCUACAGUCCGACGAUCUCCUGUCUGAUUAGUGCCAGGGAGCUUCAAAGACGUUCCAGGGCGUGGGACCUGAGCAAUAGCAUUUUCAUCCAGGAUCAUUUCAGCAAUUCCUUCCUGGUCCACAUCAAUUUCAUCUAUCAACAGAGGAUUGAGCAUCA
B16: 40853835_40853955_867_CDS_ENSG00000132872_ENST00000255224|human|control|control (ssRNA)
RNA: GGGAGUUCUACAGUCCGACGAUCCUGCUCAUCCAUGGCUGGCAAGCCACGGGCUUCCUUGAUAUUGACCACAAAUGCUUUUCUCUCGAAGUUGUAUUCUAAGGAGAAGAAGAGAGUUCCCAGCUUCUCUUGUUUCUCUUCUGACAACAGAGGAUUGAGCAUCA
B17: chr2:183853844:183853845:-_ENSG00000061676_ENST00000360982|hu_hu|motif|central (ssRNA)
RNA: GGGAGUUCUACAGUCCGACGAUCGUGAAUGUGGAAAACUUCAUCCCGAAAGAGAGAGAGGCAAGAGCUACUUUGAAGAGCGGGUUUCCAAAGGUUCAGUGCUGUAGCGUCAGUAUUUAGGAUCCCAUGGCACAAAAUAAAGCCCAACAGAGGAUUGAGCAUCA
B18: chrX:69798090:69798091:-_ENSMUSG00000031343_ENSMUST00000055966|mus_mus|mus_mus_mus_hu_False|28_78 (ssRNA)
RNA: GGGAGUUCUACAGUCCGACGAUCAAGUCCCCGGGUUCUUGUCGUCUUGAUUCCCCUUGGCUAGUGGUUCCAGGGAGAAUAUUAAUCAGGAAAAGAAUCCCAAGGCUGGUCACAUAACAGUGACUUGUUUGUGUGAUUAUCAUCCAACAGAGGAUUGAGCAUCA
B19: chr3:167437968:167437969:-_ENSG00000114209_ENST00000497056|hu_hu|FALSE|FALSE (ssRNA)
RNA: GGGAGUUCUACAGUCCGACGAUCUUCAUCUCUUCCAUUGUCAUCCUCAUUCAAAAGCCAACUACAGUUGAAAAAGCAGUGCUAAAAUGCAGAGGAAUCUUCAUUCACUGCAAUAUUUCUUCUCUUUUUUGGUGAUAAAAGAAUCAACAGAGGAUUGAGCAUCA
B20: chr1:163112212:163112213:-_ENSG00000143248_ENST00000313961|hu_hu|hu_hu_hu_mus_False|48_98 (ssRNA)
RNA: GGGAGUUCUACAGUCCGACGAUCUUUUAUUAUCAGUAAGCAUGAGUUACAUACUAGGCAAAGUAUUGGAUACAAUAAUCAGGAAACAAACACAAUUGGUCCAGAAUUUAAAACUUUAUGAGCGAAGUGCUGGCACAGGACUUACAACAGAGGAUUGAGCAUCA
B21: 3703505_3703625_952_CDS_ENSG00000130764_ENST00000378251|human|control|control (ssRNA)
RNA: GGGAGUUCUACAGUCCGACGAUCCUCGGGGCUCACUCUGACUGUCAGAGGUACGGGGUUUUCAGAGACGUGCAGGACCCUGAGCAGCAGCCGGCCGGCAUCUCCCACGUCCUGCUCCUCCCCAUCACCACCUUCCCGCCUCUGCAACAGAGGAUUGAGCAUCA
B22: 120934007_120934326_209_CDS_ENSG00000088986_ENST00000242577|human|control|control (ssRNA)
RNA: GGGAGUUCUACAGUCCGACGAUCUAUGUUGUAUUUCUCCAGCGCCUGAGUAGCGCACUCCACCGAGUCCUGUUGCAUCUCUUCCGACAUGUCCGCAUUUUUGAUCACGGCCUUUCGGUCGCACAUGGUUACCGUGGAGAAGGGCAACAGAGGAUUGAGCAUCA

The binders below were run against T1, UNK ZnF1-3 (assay: nsRBNS (natural sequence RNA bind-n-seq); RBNS binding buffer (assumed for nsRBNS): 25 mM Tris pH 7.5, 150 mM KCl, 3 mM MgCl2, 0.01% Triton X-100, 500 ug/ml BSA, 20 U/ml SUPERase-In, 4 C; UNK is unkempt and MSI1 is Musashi-1; names of the RNAs are library labels; protein concentration not given here; high values mean tight binding).
In the case of B1, the binding signal is reported as 0.896 enrichment R.
For B2, the binding signal was 1.08 enrichment R.
With B3 the binding signal was 1.19 enrichment R.
B4 showed a binding signal of 1.18 enrichment R.
B5 was tested, and the binding signal was 0.834 enrichment R.
B6 showed a binding signal of 1.22 enrichment R.
B7 was tested, and the binding signal was 0.962 enrichment R.
B8 was tested, and the binding signal was 0.658 enrichment R.
For B9, the binding signal was 0.541 enrichment R.
Work on B10 yielded a binding signal of 1.44 enrichment R.
Binder B11 has a binding signal of 2.37 enrichment R.
With B12 the binding signal was 0.573 enrichment R.
In the case of B13, the binding signal is reported as 0.43 enrichment R.
In the case of B14, the binding signal is reported as 0.795 enrichment R.
Binder B15 has a binding signal of 0.919 enrichment R.
B16 gave a binding signal of 0.638 enrichment R.
B17 gave a binding signal of 2.12 enrichment R.
B18 gave a binding signal of 0.497 enrichment R.
B19 gave a binding signal of 0.84 enrichment R.
B20 was tested, and the binding signal was 1.46 enrichment R.
With B21 the binding signal was 0.704 enrichment R.
In the case of B22, the binding signal is reported as 0.711 enrichment R.
